# Paper PMC6919601, “Identification of Plasmodium dipeptidyl aminopeptidase allosteric inhibitors by high throughput screening” (PLoS ONE, 2019)
# Screen size: about 110,000 compounds; about 230 (0.21%) showed an effect of 50% or more. The list shows a part of the results.
# Target: DPAP1 (Plasmodium falciparum, UniProt Q8IIJ9)
# Experiment: primary screen, percent inhibition; read by cleavage of a fluorogenic dipeptide substrate; higher = more effect of the substance
# Parameters: species or system P. falciparum D10 trophozoite lysates; single well
# 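Note: 30 min substrate incubation versus DMSO and 10 µM JCP410 controls.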
# Sequence of DPAP1 (Q8IIJ9 whole entry, looked up): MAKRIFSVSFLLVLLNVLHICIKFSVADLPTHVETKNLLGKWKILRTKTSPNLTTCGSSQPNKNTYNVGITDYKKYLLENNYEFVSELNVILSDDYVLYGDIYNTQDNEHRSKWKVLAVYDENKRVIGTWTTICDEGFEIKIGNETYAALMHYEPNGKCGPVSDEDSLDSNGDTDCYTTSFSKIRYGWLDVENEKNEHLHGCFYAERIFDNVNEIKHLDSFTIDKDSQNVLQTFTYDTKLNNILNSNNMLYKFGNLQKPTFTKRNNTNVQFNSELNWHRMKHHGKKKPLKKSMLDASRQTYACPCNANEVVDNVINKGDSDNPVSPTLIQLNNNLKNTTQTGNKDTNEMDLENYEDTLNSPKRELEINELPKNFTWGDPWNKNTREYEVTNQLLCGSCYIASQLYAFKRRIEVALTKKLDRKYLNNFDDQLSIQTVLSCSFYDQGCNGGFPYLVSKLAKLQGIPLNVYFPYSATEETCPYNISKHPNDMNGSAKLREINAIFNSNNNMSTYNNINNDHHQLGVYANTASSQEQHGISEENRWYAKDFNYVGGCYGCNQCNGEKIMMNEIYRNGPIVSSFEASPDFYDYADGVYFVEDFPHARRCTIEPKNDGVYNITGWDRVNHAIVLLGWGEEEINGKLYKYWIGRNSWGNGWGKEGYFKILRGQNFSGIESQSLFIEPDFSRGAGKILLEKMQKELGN
row,Compound,% Inhibition @ 10 uM [%]
1,Cc1nn(C)cc1CNC(=O)c1cc2n(n1)C(C(F)(F)F)CC(c1ccc3c(c1)OCO3)N2 (stereo not shown),-10
2,O=C(NCc1ccco1)c1ccccc1NS(=O)(=O)c1ccc(Br)s1,-2.92
3,Nc1nonc1-c1nc2ccccc2n1CC(=O)Nc1ccccc1Br,-1.43
4,COc1cc(NC(=O)c2sc3nc4c(cc3c2N)CCCC4)cc(OC)c1OC,-2.32
5,COc1ccc(CCNS(=O)(=O)c2cccc(F)c2)cc1OC,-5.51
6,COc1ccc(C(=O)Nn2c(C)nnc2-n2nc(C)cc2C)cc1OC,-1.6
7,Clc1ccc(OCCCCCN2CCCCC2)cc1,4.34
8,CCOC(=O)c1cc(-c2ccccc2)sc1NC(=O)COc1cccc(Br)c1,-1.1
9,COc1ccccc1CC(=O)NCc1nc(-c2ccccc2)no1,-2.99
10,CCc1ccc(N2C(=O)C(Cl)=C(Nc3cccc(OC)c3)C2=O)cc1,1.35
11,Cc1ccc(C(=O)N2CCN(c3ccc(F)cc3)CC2)cc1C,-0.303
12,O=C(Cn1ncc2c3ccccc3nc-2c1O)NC1CCCc2ccccc21 (stereo not shown),1.9
13,CC(=O)c1c(S)nc(-c2ccccc2)nc1N1CCOCC1,4.12
14,CCc1ccc(-c2nc(CSCC(=O)N3CCOCC3)c(C)o2)cc1,2.37
15,CCCCn1c2ccc(C)cc2c2nnc(S)nc21,61
16,O=C1C2C(c3ccccc3)C=CC(c3ccccc3)C2C(=O)N1c1cccc([N+](=O)[O-])c1 (stereo not shown),-6.71
17,COc1cccc(C(=O)N[C@@H](CSCc2ccccc2)C(=O)NCC#N)c1,1.35
18,COc1ccccc1C1C(C#N)=C(N)Oc2[nH]nc(-c3ccccc3Cl)c21 (stereo not shown),1.03
19,O=C(Nc1cccc(Cl)c1Cl)c1cnccn1,3.82
20,CN1CCc2c(sc3c2C(=O)NC(c2ccc(COc4ccc(Cl)c(Cl)c4)o2)N3)C1 (stereo not shown),5.52
21,COc1ccc(-c2cc3nc(C)cc(C)n3n2)cc1,1.54
22,COc1ccc(OCc2ccc(C(=O)N3N=C(C(F)F)CC3(O)C(F)F)cc2)cc1 (stereo not shown),-3.71
23,CC1CCCCC1NC(=O)Cn1ncn2c(cc3sccc32)c1=O (stereo not shown),1.8
24,Cc1cc(C)nc(/N=C(\N)NCCN2CCOCC2)n1,-9.24
25,Cc1ccc(-c2cc(C(=O)NCCN(C)C)c3ccccc3n2)cc1C,1.16

row,Compound,% Inhibition @ 10 uM [%]
1,O=C1CCN(CC(=O)c2ccc3cc[nH]c3c2)CC1,-1.08
2,CC1CC(=O)c2cnc(Nc3nc(-c4ccccc4)c4ccccc4n3)nc2C1 (stereo not shown),1.72
3,C=C(C)[C@@H]1CC=C(CN(C)CCN(CC)CC)CC1,-3.27
4,Cc1cccc(C)c1NC(=O)CN(c1ccccc1F)S(C)(=O)=O,0.108
5,COc1cc(OC)cc(C(=O)N2CCN(c3ccc(F)cc3)CC2)c1,-3.25
6,CC(C)(C)c1[nH]nc2c1[C@@H](c1ccccc1C(F)(F)F)C(C#N)=C(N)O2,2.69
7,COc1ccc(OCC(=O)NCc2nc(-c3ccc(OC)cc3)no2)cc1,-2.99
8,C=CCNc1nc(Cl)nc(N(CC)CC)n1,2
9,Cc1cc(C)nc(NC(=O)COc2cccc(Cl)c2)c1,-4.39
10,CN1CCCN(Cc2cc([N+](=O)[O-])ccc2Cl)CC1,3.01
11,Cc1c(C(=O)N2CCN(Cc3ccccc3)CC2)sc2nc3n(c(=O)c12)CCCCC3,4.21
12,COc1ccc2c(c1)CC/C(=C\c1ccsc1)C2=O,0.189
13,O=C(NC1CCCCCCC1)c1ccccc1O,-9.57
14,CCOC(=O)C1=C(N)OC2=C(C(=O)CC(C)(C)C2)C1c1ccc(Cl)cc1 (stereo not shown),1.4
15,CCOC(=O)c1ccc(-n2c(N)c(C#N)c3nc4ccccc4nc32)cc1,-7.09
16,CCC(=O)Nc1ccc2[nH]c(C(F)(F)F)nc2c1,0.986
17,CC(=O)N(C)c1ccc(NC(=O)COc2ccccc2C)cc1,0.147
18,C=CCSC1=C(C#N)C(c2sccc2C)CC(=O)N1 (stereo not shown),-1.08
19,Nc1c(C(=O)CCC(=O)O)oc2ccc(Cl)cc12,3.34
20,CCCOc1ccc(-c2nc3s/c(=C\c4ccco4)c(=O)n3n2)cc1,2.17
21,O=C(c1ccc2c(c1)OCO2)N1CCN(c2ccc(F)cc2)CC1,1.64
22,COc1ccc(C(C)n2c(C)c3c(C)nnc(C)c3c2C)cc1 (stereo not shown),1.91
23,O=S(=O)(NCc1ccc2c(c1)OCO2)c1ccc(Cl)cc1,-3.37
24,COc1ccc(NC(=O)CN(c2cc(Cl)cc(Cl)c2)S(=O)(=O)c2ccccc2)cc1OC,5.66
25,Cc1ccccc1C(=O)Nc1nc(-c2ccccc2)ns1,-2.75

row,Compound,% Inhibition @ 10 uM [%]
1,Nc1nc(-c2ccc3ccccc3c2)cs1,-2.2
2,COc1ccc(S(=O)(=O)NCc2ccc(C(=O)NCc3cccs3)cc2)cc1,-1.54
3,O=C(c1cc(-c2ccc3c(c2)OCO3)nc2ccccc12)N1N=C(C(F)F)CC1(O)C(F)F (stereo not shown),-0.545
4,COc1ccc(-c2cc(C(=O)NC(Cc3c[nH]c4ccccc34)C(=O)O)c(C)o2)cc1OC (stereo not shown),-5.38
5,Cc1ccc(-c2oc3ncnc(N)c3c2-c2ccc(C)cc2)cc1,-1.33
6,Cc1oc2cc3oc(=O)c(CCC(=O)O)c(C)c3cc2c1-c1ccccc1,0.558
7,Cc1ccccc1NC(=O)CCCC(=O)Nc1ccccc1C,-2.83
8,COc1ccc(NC(=O)C2=C(C)NC(=O)NC2c2cccc(OC)c2)cc1 (stereo not shown),4.49
9,COc1ccc2oc(=O)c(-c3nc(-c4ccccc4C)no3)cc2c1,1.66
10,O=C(NCCc1ccccn1)c1nc(-c2ccc3c(c2)OCO3)no1,-0.0108
11,CCOC(=O)c1c(C)n(-c2ccc(C)cc2C)c2ccc(O)cc12,1.39
12,Cc1ccc(N(CC(=O)NCc2cccnc2)S(=O)(=O)c2ccc(F)cc2)cc1,-3.12
13,CC(NC(=O)C1CCN(c2nnc(N3CCCC3=O)s2)CC1)C12CC3CC(CC(C3)C1)C2 (stereo not shown),2.27
14,CCSc1ncc(Cl)c(C(=O)N(C)Cc2ccccc2)n1,2.19
15,Cc1ccc(C)c(S(=O)(=O)Nc2ccc(C(=O)N3CC(C)CC(C)C3)cc2)c1 (stereo not shown),-1.06
16,O=C(NCCc1ccc(Cl)cc1)c1ccc(-n2cnc3cccnc32)cc1,1.77
17,COc1ccc(OC)c(CN2CCN(Cc3ccc(OC)cc3OC)CC2)c1,4.87
18,O=S(=O)(NCc1ccccc1Cl)c1ccc2nc(O)ccc2c1,1.36
19,Cc1ccc(N(C)C)cc1NC(=O)CCC(=O)O,-8.59
20,Cc1ccc(S(=O)(=O)NCc2ccc(C(=O)NCCCN(Cc3ccccc3)C(C)C)cc2)cc1,3.74
21,C=CCOc1ccc(C2C(C(=O)c3ccc(OCC)c(C)c3)=C(O)C(=O)N2CCCN(C)C)cc1 (stereo not shown),-0.178
22,CCOc1ccc(-c2[nH]nc3c2C(c2ccc(OCC)c(OCC)c2)C(C#N)=C(N)O3)c(OCC)c1 (stereo not shown),15.1
23,CCCCSc1c(C(=O)NC)ccc2c1C(=O)c1ccccc1C2=O,-4.35
24,CCCn1c(-c2ccc(Br)cc2)cn2c3c(=O)n(C)c(=O)n(C)c3nc12,-3.45
25,COc1cc(C2C(C#N)=C(C)N=C3CC(c4ccccc4)CC(O)=C32)cc(OC)c1OC (stereo not shown),15.8

row,Compound,% Inhibition @ 10 uM [%]
1,NCCNCC1COC2(CCCC2)O1 (stereo not shown),-9.49
2,Cc1cccc(C2C(C#N)=C(N)OC3=C2C(=O)CC(c2ccccc2)C3)c1 (stereo not shown),7.59
3,CS(=O)(=O)N(CCc1ccccc1)CC(=O)N1CCN(c2ccccc2)CC1,-7.17
4,C=CCN1C(=O)S/C(=C/c2cccc(C)c2)C1=O,1.92
5,Cc1cccc(OCCn2c(C(C)O)nc3ccccc32)c1 (stereo not shown),2.73
6,Cn1c2c(c(=O)[nH]c1=O)C(c1ccsc1)C1=C(O)c3ccccc3C1=N2 (stereo not shown),4.08
7,Cc1cccc(/C(O)=C/C=N/c2ccc(Cl)cn2)c1,-9.55
8,Clc1cnc2[nH]c(-c3cccnc3)nc2c1,-6.08
9,CC(C)(Oc1ccc(Cl)cc1)C(=O)N1CCc2ccccc2C1,0.565
10,OCCCc1nc2ccccc2n1Cc1ccccc1F,-0.28
11,CCC(C)n1c(=O)c2sccc2n2c(CCCC(=O)NCc3ccc(C)cc3)nnc12 (stereo not shown),-5.95
12,COc1cc(C(=O)Nc2ccc(S(=O)(=O)N3CCc4ccccc43)cc2)cc(OC)c1OC,-2.19
13,Cc1ccc2nc(NC(=O)CCn3cccc3)sc2c1,-4.24
14,COc1ccc(CC(=O)N(Cc2ccccc2)Cc2ccccc2)cc1,-1.38
15,CCOC(=O)N1CCN(C(=O)c2cc(S(=O)(=O)N3CCCC3)cn2C)CC1,-3.42
16,C=CCN1C(=O)C(O)(CC(=O)c2ccc(OC)cc2OC)c2ccccc21 (stereo not shown),-4.61
17,CC1CCN(CC(O)Cn2ccc3ccccc32)CC1 (stereo not shown),-1.72
18,Cc1cc(Br)ccc1OCC(=O)Nc1ccc(S(=O)(=O)N2CCCCC2)cc1,-2.67
19,CCCCN(C)Cc1ccc2c(c1)c1ccccc1n2CC,-0.603
20,O=C(CSCc1cccc2ccccc12)Nc1ccccc1,-0.996
21,O=C(NCc1ccccc1Cl)C(=O)NCC(c1cccnc1)N1CCOCC1 (stereo not shown),-3.51
22,CCC(C)NC(=O)C1=CC(c2ccc(C)cc2)=NS(=O)(=O)N1C (stereo not shown),5.48
23,CC(C)c1ccc(C2C(C#N)=C(N)SC(N)=C2C#N)cc1,46.7
24,O=C(Cn1nc(C(F)(F)F)cc1C1CC1)Nc1ccc(S(=O)(=O)N2CCCC2)cc1,1.38
25,O=C(c1nc2ncccn2n1)N1CCN(C(c2ccccc2)c2ccccc2)CC1,-5.41
